Data taken from PubChem BioAssay AID2060363 (Molecular Pharmacology Branch, DTP, NCI, 2025).
Certain results were filed several times, with different values. Only these are listed. An entry can have further records. Values given together are repeated measurements (runs, samples, wells, individuals or studies).

System: 156681-154-R-J1-PDC tumor spheroids, viability % test/control
Assay: Anticancer human tumor 156681-154-R-J1-PDC patient-derived melanoma cell line growth inhibition [TAK]
Conditions: compound alone; spheroids with HUVEC and MSC
Text: Combinatorial screen of targeted agents with TAK-243 and ipatasertib in multi-cell type tumor spheroids
A high-throughput screen of multi-cell type tumor spheroids was designed to identify active combinations of targeted small molecules and TAK-243 or ipatasertib. Complex spheroids include a stromal component modeled by human endothelial cells (HUVEC) and fibroblasts modeled by human mesenchymal stem cells (MSCs). The concentration ranges selected for each drug and investigational agent were based upon clinically achievable concentrations if the clinical Cmax of the agent was known.
Compounds. […] If the clinical Cmax for an agent had not been determined, the highest concentration tested was 10 microM.
NCI60 Cell Culture. […] The optimal seeding densities for each of the cell lines at each time point assessed were determined prior to performing the concentration response studies. […]
For the pre-screen, cell seeding densities were determined from a titration spanning the range from 5,000 to 313 cells per well. […]
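Further: spheroids exposed to compounds for 7 days before the endpoint.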

`CCCS(=O)(=O)Nc1ccc(F)c(C(=O)c2c[nH]c3ncc(-c4ccc(Cl)cc4)cc23)c1F` was tested, and the IC50 was > 100 µM and 9.07 µM.
